Laboratory results published in ChEMBL document CHEMBL1201862, “PubChem BioAssay data set” (2004).

system: NCI-H322M; experiment: DTP human tumour cell line panel, 48 h

Compound	GI50
COC(=O)C(=O)C1CCCCC(C2=NC3NN=C(N)N3C2=O)C1=O (stereo not given)	inactive: > 100 µM
CC(C)=CC(=O)CC(=O)C(=O)Nc1ccc(C)c(C)c1	inactive: > 100 µM
On1c(-c2ccccc2)c(-c2ccccc2N2CCCC2)c2ccccc21	inactive: > 100 µM
CCc1nnc2sc(-c3ccc(-c4ccc(Cl)cc4Cl)o3)nn12	inactive: 91.6 µM
CN(C)CC1CCC/C(=C\c2ccc(OC(=O)/C=C/c3ccccc3)cc2)C1=O (stereo not given)	inactive: 7.23 µM
OCC(O)COc1c(Cl)cc(Cl)cc1Cl (stereo not given)	inactive: > 100 µM
CCC1(O)CC(c2ccccc2)N(C)C(c2ccccc2)C1 (stereo not given)	inactive: > 100 µM
CCOC(=O)/C(=C\c1ccc(N(CCC#N)CCC#N)cc1)NC(=O)c1cc([N+](=O)[O-])ccc1Cl	inactive: > 100 µM
COc1ccc(S(=O)(=O)N/N=C/C(=O)O)cc1	inactive: 942 µM
CC(C)=CCN1c2ccccc2NC(=O)CC1C (stereo not given)	inactive: > 100 µM
Cc1cn(C2CC(OC3CCCCO3)C(CO)O2)c(=O)[nH]c1=O (stereo not given)	inactive: > 100 µM
CSc1ccc(-c2cc(-c3nc4ccccc4[nH]3)nc3[nH]c(-c4nc5ccccc5[nH]4)cc(=O)c23)cc1	inactive: > 100 µM
Cc1nn2c3c(nnc2c1C#N)C(=O)NN=C(N)S3	inactive: > 100 µM
C=CCCCCCCCC(O)C1C[C@H](O)C(CCCCC)O1 (stereo not given in full)	inactive: 17.9 µM
O=C(Nc1nnc(-c2ccccc2)o1)C(SC(=S)N1CCCC1)c1ccccc1 (stereo not given)	inactive: 22.8 µM
CC12CC3CC/C(=N\O)C(C1)C3(N1CCOCC1)C/C2=N/O (stereo not given)	inactive: > 100 µM
N#Cc1ccsc1Nc1ccccc1[N+](=O)[O-]	inactive: > 100 µM
COc1cc([C@H]2c3cc4c(cc3[C@H](NCc3ccc(F)cc3)C3COC(=O)[C@H]32)OCO4)cc(OC)c1O (stereo not given in full)	inactive: 37.1 µM
COC(=O)Cc1nc2ccccc2o1	inactive: > 100 µM
O=C(CCC1C(=O)NC(=S)NC1=O)c1ccc2ccccc2c1	inactive: > 100 µM
O=C1COc2ccc([N+](=O)[O-])cc2C(=O)C1	inactive: > 10 µM
O=c1c2ccccc2nc(-c2ccccc2)n1NC1OC(CO)C(O)C(O)C1O (stereo not given)	inactive: > 100 µM
CC1(C)OCC2OC3([C@H]4OC(C)(C)O[C@@H]4CO)OC(C)(C)OC3C2O1 (stereo not given in full)	inactive: > 100 µM

Compound	GI50
O=C1CC(O)c2c1csc2Br (stereo not given)	inactive: > 100 µM
Cc1cc(=O)oc2c1cc1ccc3cccc4ccc2c1c34	inactive: > 100 µM
CC(C)(C)OC(=O)Cn1ncn(NC(=O)Cc2ccccc2)c1=O	inactive: > 10 µM
CC(=O)Oc1ccc(/C=C/C(=O)O[C@H]2CCCC[C@@H]2OC(=O)/C=C/c2ccc(OC(C)=O)c(OC(C)=O)c2)cc1OC(C)=O	inactive: 17.5 µM
O=c1[nH]nc(Cc2ccccc2)n1C1CC1	inactive: > 100 µM
COc1ccc(C(C)NNC(=O)c2ccncc2)cc1F (stereo not given)	inactive: > 100 µM
O=C(c1ccc(O)cc1O)C1C(c2ccc(O)cc2)OC(c2ccc(O)cc2)C1C(=O)c1ccc(O)cc1O (stereo not given)	inactive: 10.8 µM
CCN(/N=C1\CC2C=CCN(C2)C(=O)Cc2c1[nH]c1ccccc21)S(=O)(=O)c1ccc(C)cc1 (stereo not given)	inactive: > 100 µM
C=C1C(=O)O[C@@H]2/C=C(\C)CC/C=C(/COC(C)=O)C[C@@H](OC(C)=O)[C@@H]12	inactive: 39.8 µM
C[C@]12CC(c3ccccc3O1)C(C#N)C(=O)N2 (stereo not given in full)	inactive: > 100 µM
COc1ccc(CCc2ccc3c(c2)OCO3)cc1	inactive: 92.5 µM
CSCC[C@@H](NC(=O)[C@H](CC(C)C)NC(=O)C(Cc1cnc[nH]1)NC(=O)CNC(=O)[C@@H](NC(=O)[C@H](C)NC(=O)[C@H](Cc1cn(C=O)c2ccccc12)NC(=O)[C@H](CCC(N)=O)NC(=O)[C@@H](N)CC(N)=O)C(C)C)C(N)=O (stereo not given in full)	inactive: > 100 µM
COc1cc(C2c3cc4c(cc3OC(NCc3ccccc3)C2C)OCO4)cc(OC)c1OC (stereo not given)	active: 0.417 µM
CC1=NNC(=O)C1C1CC(c2c[nH]c3ccccc23)=NNC1=S (stereo not given)	inactive: > 100 µM
Cc1nc(C)c(C(=O)Nc2cccc3c2C(=O)NC3=O)cc1C(=O)Nc1cccc2c1C(=O)NC2=O	inactive: > 100 µM
CCCCc1c2c([n+]([O-])c3c1CCCC3)CCCC2	inactive: > 100 µM
O=c1n(-c2ccccc2)c(=O)n2n1C1Cc3ccccc3C12 (stereo not given)	inactive: > 100 µM
COc1ccc(C2(CC(C)C)CCN(S(=O)(=O)c3ccc(C)cc3)C2)cc1OC (stereo not given)	inactive: 54.3 µM
CCOC(=O)N1C/C(=C\c2ccc(N(C)C)cc2)C(=O)/C(=C/c2ccc(N(C)C)cc2)C1	inactive: > 100 µM
CC(=O)[C@@H](C)C(=O)N1C(=O)OC[C@@]12[C@@H]1CC[C@@H](C1)C2(C)C	inactive: > 100 µM
CCCCCCCCCCCCCCCCCCOCC1(COP(=O)([O-])OCC[N+](C)(C)C)CCCO1 (stereo not given)	inactive: 12.9 µM
C[n+]1c2ccccc2c(CNC(CCC(N)=O)C(=O)O)c2ccccc21 (stereo not given)	inactive: 7.74 µM
CC(=O)Nc1ccccc1C=C1c2ccccc2-c2ccccc21	inactive: 45.6 µM

Compound	GI50
COc1cc2c(cc1O)CN1CCC23C=C[C@@H](O)CC13 (stereo not given in full)	inactive: 36.9 µM
Cc1nc2c(=O)n3c4c(cccc4c2o1)CCC3	inactive: > 100 µM
CC(=O)C(=NNc1ccc(-n2c(C)nc3ccc(Br)cc3c2=O)cc1)C(C)=O	inactive: > 100 µM
NC(=O)CC(/N=C1\C(=O)OC(C(O)CO)\C1=N/C(CC(N)=O)C(=O)O)C(=O)O (stereo not given)	inactive: > 100 µM
O=c1oc2ccc([N+](=O)[O-])cc2cc1-c1csc(-c2ccccc2)n1	inactive: > 100 µM
OC1COC(n2c3ccc(Br)cc3c3ccc4c5ccccc5[nH]c4c32)C(O)C1O (stereo not given)	inactive: 4.84 µM
C(/COc1cccnc1)=N\NC1=NCCN1	inactive: > 100 µM
NCCCNCCSSC/C=C\CSSCCNCCCN	inactive: 93.5 µM
CN(C)CCOc1ccc2[nH]c(C(=O)N3CC(CCl)c4c3cc(N)c3ccccc43)cc2c1 (stereo not given)	active: < 0.01 µM
CCCS(=O)(=O)O	inactive: > 100 µM
CSc1ncc2c(C#N)c3sc4ccccc4n3c(=O)c2n1	inactive: > 100 µM
CN1C(NN)=NS(=O)(=O)c2ccccc21	inactive: > 100 µM
CCc1nc(N)nc(N)c1-c1ccc(N2CCNCC2)c([N+](=O)[O-])c1	inactive: 7.08 µM
CC1C(=O)C23OC[C@@]1(C)C1(O)CC[C@@H](C)[C@]21CC3=O (stereo not given in full)	inactive: > 100 µM
O=S(=O)(c1ccccc1)C(CN1CCCCC1)S(=O)(=O)c1ccccc1	inactive: > 100 µM
N#Cc1c(CC(=O)O)cc(=O)n2c1[nH]c1ccccc12	inactive: > 100 µM
CC(=O)ONC(C(=O)C(C)(C)C)C(=O)C(C)(C)C	inactive: > 100 µM
COC(=O)[C@H](Cc1ccccc1)NC(=O)N(CCNC(=O)OC(C)(C)C)c1ccccc1	inactive: > 100 µM
O=[N+]([O-])c1ccc(N2C[N+](c3ccccc3)=NC(c3ccccc3)=N2)cc1	inactive: 38.4 µM
CC1=NN(C(=O)CC(=O)N(C(=O)c2ccccc2Cl)c2ccc(C)cc2)C(=O)C1/N=N/c1ccc([N+](=O)[O-])cc1 (stereo not given)	inactive: > 69.2 µM
COc1cc2c(cc1OC)C(=O)C(C1=C(SC(=N)N)C(=O)c3cc(OC)c(OC)cc31)C2 (stereo not given)	inactive: > 100 µM
CC1=NN(c2cccc(Cl)c2)C2(C1=Cc1ccc(O)cc1)C(Cl)C(=O)N2c1nc2ccccc2s1 (stereo not given)	inactive: 22.6 µM
c1ccc2c(c1)-c1nc3ccccc3cc1C2N1CCOCC1 (stereo not given)	inactive: > 100 µM

Compound	GI50
O=[N+]([O-])/C(C(Cl)=C(Cl)Cl)=C(\N1CCCCC1)n1nnc2ccccc21	inactive: 17.8 µM
C[C@]12CC[C@H]3[C@@H](CC[C@]4(O)C[C@@H](O)CC[C@]34CO)[C@@]1(O)CC[C@@H]2C1=CC(=O)OC1 [STROPHANTHIDOL]	inactive: 2.86 µM
COC(=O)C1=C(C)NC(C)=C(C(=O)OC)C1c1cccc(N=O)c1	inactive: > 100 µM
CC1=Nc2ccccc2OC(C)=C1/N=N/c1ccc2[nH]c(C)nc2c1	inactive: > 100 µM
O=C1CCC(c2nc3cc(Cl)ccc3o2)C(=O)N1 (stereo not given)	inactive: > 100 µM
c1ccc2oc(-c3ccc(-c4nc5ccccc5o4)c4c3CC4)nc2c1	inactive: > 100 µM
COc1ccc(/C=C(\C#N)c2nc3ccccc3c(=O)[nH]2)cc1	inactive: 42.7 µM
[N-]=[N+]=Nc1ccc2c(c1)Sc1ccccc1N2CCCCN1CCN(Cc2ccc(C(=O)c3ccc(CSCC(N)C(=O)O)cc3)cc2)CC1 (stereo not given)	inactive: 22.6 µM
COc1cc2cc(C(=O)N3CC(CCl)c4ccc(NO)cc43)[nH]c2c(OC)c1OC (stereo not given)	active: 0.28 µM
C=C1[C@@H](O)C[C@@]23CC[C@@H]4[C@@]5(C)CC[C@@H](OC(C)=O)C(C)(C)[C@@H]5C[C@@H](OC5OC(COC(C)=O)C(O)C(O)C5O)[C@@]4(C)C2=CC[C@H]3[C@H]1C (stereo not given in full)	inactive: 12.7 µM
CC1=C(C(=O)Nc2ccccc2)C(c2ccc(C)o2)C(C#N)=C(SCc2ccccc2)N1 (stereo not given)	inactive: > 100 µM
CCN(CC)CCCNC(=O)c1ccccc1Nc1c(Cl)cccc1Cl	inactive: 14.5 µM
CC(C)(C)CN1[C@@H]2CCCC[C@H]2N(CC(C)(C)C)P1(=O)C(O)/C=C/c1ccccc1 (stereo not given in full)	inactive: 49.4 µM
CC(=O)C1C(=O)C(=O)N(c2ccccc2N2C(=O)C(=O)C(C(C)=O)C2=O)C1=O (stereo not given)	inactive: > 100 µM
CN(C)c1ccc(Cc2cc3c(O)ccc(O)c3cc(Cc3ccc(N(C)C)cc3)c2=O)cc1	inactive: > 64.7 µM
Cn1c2ccccc2c2cc(-c3ccccc3)c3c(c21)C(=O)c1ccccc1C3=O	inactive: 22.3 µM
CNCC(SC)c1ccc(O)c(O)c1 (stereo not given)	inactive: 61.5 µM
CCOC(=O)c1cc(-c2ccc(OC)c(OC)c2)cn1C	inactive: > 10 µM
COc1ccc(/C=c2/sc3n(c2=O)NC2(CCCCC2)NN=3)cc1	inactive: > 100 µM
CC1(C)C(c2ccccc2)=[N+]([O-])C(C)(C)N1O	inactive: > 10 µM
CCN1CC2=C(N=c3s/c(=C\c4ccc(Cl)cc4)c(=O)n3C2c2ccc(Cl)cc2)/C(=C/c2ccc(Cl)cc2)C1 (stereo not given)	inactive: > 100 µM

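The compound was tested at five concentrations on cells cultured in 96-well plates, with a 48-hour exposure period. GI50: concentration for 50% inhibition of growth.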 The source made the active and inactive calls. Cut-off read from the data, not from the text of the source: active = GI50 up to about 1.1 µM and inactive = higher.
